The results in this text go back to patent publication US20100316644A1 (ACCELERON PHARMA, published 2010).

Holding throughout (assay): Biacore, steady-state affinity fit
A general note: In SPR one partner is held on a chip, and binding of the other changes the refractive index at the surface.

In one test the target is T1, Activin A (UniProt P08476 311-426).
T1 sequence (looked up): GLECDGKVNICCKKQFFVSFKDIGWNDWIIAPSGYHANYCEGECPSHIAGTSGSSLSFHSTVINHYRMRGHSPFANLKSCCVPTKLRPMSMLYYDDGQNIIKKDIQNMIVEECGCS
The text has this:
(§1) Kd values were obtained by steady-state affinity fit due to very rapid association and dissociation of the complex, which prevented accurate determination of kₒₙ and koff.

Test [1] concerns the target T2, Growth and Differentiation Factor-11 (GDF11) (UniProt O95390 299-407).
T2 construct: also called BMP11
T2 sequence (looked up): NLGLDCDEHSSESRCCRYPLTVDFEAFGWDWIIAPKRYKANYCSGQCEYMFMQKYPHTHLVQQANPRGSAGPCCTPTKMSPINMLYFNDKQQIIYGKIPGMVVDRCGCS
From the text: as §1

In a further test the target is T3, Activin B (UniProt P09529 293-407).
T3 sequence (looked up): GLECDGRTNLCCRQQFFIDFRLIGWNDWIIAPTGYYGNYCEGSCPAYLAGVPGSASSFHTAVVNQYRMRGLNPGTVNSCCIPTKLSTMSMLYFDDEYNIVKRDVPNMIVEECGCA
From the text: as §1

B1: ActRIIB(25-131)-hFc (Fc fusion)
chain: ETRECIYYNANWELERTNQSGLERCEGEQDKRLHCYASWRNSSGTIELVKKGCWLDDFNCYDRQECVATEENPQVYFCCCEGNFCNERFTHLPEAGGPEVTYEPPPTG[sequence of human IgG1 Fc and a few adjoining residues not given]
notes: also called truncated ActRIIB-Fc fusion protein
As a reminder, the Kd is a measure of binding affinity in units of concentration. Read a high Kd as a looser complex. Regarding B1, the equilibrium dissociation constant (Kd) is 0.018 nM with Activin A, 0.031 nM in test [1] and 0.012 nM in the test with Activin B.
